According to PubChem BioAssay AID1508624 (National Center for Advancing Translational Sciences (NCATS), 2021):
The campaign covered roughly 48,000 compounds. About 120 (0.25%) were called active. Another 4% or so got no clear call; they are omitted. Calls follow the shape of the dose curve; as a rule, active = well fitted activation curve with a large enough effect; inconclusive = small, poorly fitted or top-dose-only effect, or another doubt; inactive = no such curve, though single readings can be large or run the other way. This is one part of the list.

Assay: Primary qHTS for Identification of Small Molecule Activators of Huntingtin-Antisense Promoter Activity; also: nearly all actives have a fitted effect of over 55% in size
Details: HEK293 HTT-AS promoter firefly luciferase reporter, 24 h; series mostly up to 57.5 µM; activity change, positive = activation: at the top concentration
Method in brief: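 HEK293 cells carrying firefly luciferase reporters were seeded at 2,500 per well in Opti-MEM and cultured for 24 h. They were then treated with compounds at up to 57.5 uM final for 24 h at 37 degrees C before Dual-Glo luminescence readout.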

Activity change, positive = activation, inactive:
CCOC(=O)c1ccc(NC(=O)Cn2c(=O)cc(C)c3c(C)nn(-c4ccc(CC)cc4)c32)cc1 -4.95%
COc1cccc(/C=C/c2nc(C#N)c(N3CCC(C(N)=O)CC3)o2)c1 -11%
Cc1ccc(C2C=C(c3ccccc3)Nc3nc(NS(=O)(=O)c4ccccc4)nn32)cc1 (centres undefined) -9.88%
CCOc1ccc(CCNC(=O)c2cn(-c3ccc(OC)cc3)c(=O)c3ccccc23)cc1OCC -24.1%
COc1ccc(Br)cc1S(=O)(=O)Nc1cc(-c2cn3ccccc3n2)ccc1C -23.6%
COc1ccc(NC(=O)Cn2c(=O)n(CCC(=O)NCC3CCCO3)c(=O)c3cc(OC)c(OC)cc32)cc1 (centres undefined) 0%
CN(Cc1ccccc1)C(=O)c1ccc(CSc2nc3cccnc3n2Cc2ccccc2F)cc1 -20.9%
COc1ccccc1Nc1sc(C(=O)c2ccc(F)cc2)c(N)c1S(=O)(=O)c1ccc(C)cc1 -23.7%
COc1ccc(CNC(=O)CCc2c(C)nc3c(c(C)nn3-c3ccccc3)c2C)cc1 -12.5%
CCOC(=O)c1c(C)n(-c2ccc(OC)cc2)c2ccc(OC(=O)COc3ccccc3)cc12 -29.6%
Cc1ccc(-n2ncc3c(Nc4cccc(Cl)c4)ncnc32)c(C)c1 -1.92%
CN1C[C@H]2c3ccccc3Oc3ccc(Cl)cc3[C@@H]2C1
O=C(Cn1nnnc1-c1ccccc1F)Nc1ccc(OC(F)(F)F)cc1 -9.23%
COc1cc(NC(=O)C2=CC(c3ccc(F)cc3)=NS(=O)(=O)N2C)cc(OC)c1OC -25.8%
c1ccc([C@H]2CN3CCSC3=N2)cc1 -6.84%
CC(C)c1nnc(N2C(=O)c3oc4ccccc4c(=O)c3C2c2ccccc2F)s1 (centres undefined) 4.56% [at 11.5 µM, percent change from vehicle, -100% = no light]
CCN(CC)c1cc(C)c2cc(NC(=O)/C=C/c3cc(OC)c(OC)c(OC)c3)ccc2n1 -8.42%
CN(C)CC/C=C1\c2ccccc2Sc2ccc(Cl)cc21 -18.5%
O=C(CSc1nccn1Cc1ccc(F)cc1)Nc1nc2ccccc2s1 -28.4%
CCN(Cc1ccccc1)C(=O)C1CCN(S(=O)(=O)c2ccc3c(c2)CCCN3C(C)=O)CC1 -24.3%
COc1ccc(Cl)cc1NC(=O)c1cn(C2CCCC2)c(=O)c2c1c1ccccc1n2C -3.79%
Cc1cccc(N(CC(=O)Nc2ccccc2C(F)(F)F)S(=O)(=O)c2ccccc2)c1C -24.7%
COc1ccc(OC)c(C2CC(=O)Oc3c2c(=O)n(C)c2ccccc32)c1 (centres undefined) -12.3%
O=C(NCC(c1cccs1)S(=O)(=O)c1ccccc1)c1ccc(C(F)(F)F)cc1 (centres undefined) -29.3%
COCCCNC(=O)CSc1nc2c(sc3ccccc32)c(=O)n1CCc1ccc(OC)c(OC)c1 -7.83%
COc1ccccc1C(=O)NC1(C(F)(F)F)C(=O)Nc2c1c(=O)[nH]c(=O)n2-c1ccc(F)cc1 (centres undefined) -7.37%
Cc1cccc(Cn2c(-c3cccc(Br)c3)nc3ccccc32)c1 -30.4%
CN(C)CCNC(=O)Cn1ccc2cc(S(=O)(=O)N3CCCCCC3)ccc21 -7.55%
Cc1cc(Cl)ccc1OCC(=O)N(Cc1ccco1)Cc1ccccc1F -36.4%
COc1ccc(CNC(=O)CSc2ncc3c(n2)-c2ccc(Cl)cc2N(Cc2ccccc2)S3(=O)=O)cc1 -1.23%
COc1ccc(-c2noc(-c3ccc(N4CCCC4)c([N+](=O)[O-])c3)n2)cc1OC -5.54%
CCC(=O)O[C@]1(C(=O)CCl)[C@@H](C)C[C@H]2[C@@H]3CCC4=CC(=O)C=C[C@]4(C)[C@@]3(F)[C@@H](O)C[C@@]21C
CCc1ccc(-n2nc(C)c3c(C(=O)N4CCN(c5ccccc5)CC4)cc(C)nc32)cc1 -14.9%
CCOc1ccc(CNC(=O)C2CCCN(c3nnc(C)c4c(C)n(-c5ccccc5)nc34)C2)cc1 (centres undefined) -19.6%
O=C1C[C@@H](c2ccc(O)cc2)Oc2cc(O)cc(O)c21 20.3%
CCOc1cc(C2NC(=O)c3c(sc4c3CCN(C)C4)N2)ccc1OC(=O)c1ccc(Br)cc1 (centres undefined) -10.6%
Cc1nn2c(C)c(C(=O)NC(C)c3ccccc3)cnc2c1-c1ccc(F)cc1 (centres undefined) -6.17%
COc1ccc(NC(=O)c2ccco2)cc1NC(=O)C(C)(C)Oc1ccc(Cl)cc1 -14.6%
CCOc1ccc(NC(=O)Cn2cnc3sc(C)c(S(=O)(=O)N4CCN(c5ccccc5OC)CC4)c3c2=O)cc1 -7.6%
COc1ccc(C)cc1NC(=O)c1cc2c(=O)n3cccc(C)c3nc2s1 -5.17%
CCC(=O)N1CCCc2cc(S(=O)(=O)N3CCC(C(=O)NCc4ccc(F)cc4)CC3)ccc21 -15.6%
Cc1cccc(C)c1-n1ncc(C(=O)O)c1C1CCN(C(=O)OC(C)(C)C)CC1 -1.04%
O=C(COc1ccccc1)Nc1nnc(S(=O)(=O)Nc2ccccc2)s1 -9.68%
Cc1ccc(Cl)cc1N1CCN(S(=O)(=O)c2cn(C)c(C)n2)CC1 -23.2%
CC1CCCCN1CCCNC(=O)CN1C(=O)c2cccnc2Oc2ccc(Cl)cc21 (centres undefined) -3.63%
CCOc1ccccc1C1C(C(=O)Nc2ccccc2)=C(C)Nc2nc(SCC(=O)c3ccc(C)cc3)nn21 (centres undefined) -16.7%
CN(C(=O)CSc1nc(-c2ccccc2)no1)c1ccc(F)cc1 -0.24%
COc1ccc(C(=O)c2sc3nc4c(c(C(F)(F)F)c3c2N)CN(C(C)=O)CC4)cc1OC -36.7%
CCOc1ccccc1NC(=O)Nc1nnc(N2CCCC(C)C2)s1 (centres undefined) -19.8%
O=C1OCCN1/N=C/c1ccc([N+](=O)[O-])o1 2.77%
O=C(c1ccc(Cl)cc1)N1CCN(CCc2ccncc2)CC1 -2.62%
Cc1ccc(-c2nnc(Nc3cccc(Cl)c3)c3ccccc23)cc1S(=O)(=O)N1CCN(C)CC1 -7.03%
COc1ccc(C(=O)NCc2ccc3c(c2)CCN3C(C)=O)c(OC)c1 -17.8%
Cc1ccccc1NC(=O)C1CCN(S(=O)(=O)c2c(C)noc2/C=C/c2ccco2)CC1 -11.5%
CCC(=O)N1CCc2cc(CNC(=O)c3cccc(N(C)C)c3)ccc21 -2.17%
COc1ccc(NC(=O)C2CCCN(c3ncnc4onc(C)c34)C2)cc1OC (centres undefined) -19.6%
CCC(CN)=C(c1ccccc1)c1ccccc1 -9.65%
CCc1ccccc1N1C(=O)CN(S(=O)(=O)CC)CC1(C)C(=O)NC1CCCCC1 (centres undefined) -16.2%
CCC(=O)OC1=C(C(C)=O)N(Cc2ccccc2)S(=O)(=O)c2ccccc21 -5.1%
